# Screen size: about 94,000 compounds; about 6,200 (6.6%) were called active. Inconclusive results, whose numbers are uncertain, are shown with a selection of clear calls. Calls follow the shape of the dose curve; as a rule, active = well fitted inhibition curve with a large enough effect; inconclusive = small, poorly fitted or top-dose-only effect; inactive = flat fitted curve, though single readings scatter. Potencies beside an inconclusive call are fits to weak or partial responses and may not hold up.
# Test: Cytotoxic Profiling in HEK 293 Cell Line of Diverse Libraries Using Quantitative High-Throughput Screening; also: nearly all actives have a fitted effect of over 60% in size
# Details: HEK 293 viability, ATP luminescence (CellTiter-Glo), 48-72 h; series mostly up to 115 µM
# Method in brief: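 CellTiter-Glo luminescence (cellular ATP) was read after 48 or 72 hr of compound exposure at 37 degree Celsius. Cells were HEK 293 plated at 250 cells/well.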
# Potency is read from the fitted curve at half-maximal effect; tags tell the direction and shape of the fitted curve.
row,SMILES,Potency
1,O=C(CCc1nnn2c1CN(C(=O)NCc1ccccc1)CC2)N1CCCC1,inactive
2,O=C(NCC1CCOCC1)c1cnc2n[nH]c(-c3ccccc3)c2n1,"inconclusive: 112 µM [inhibitor, partial curve, poor fit]"
3,COCCNC(=O)c1ccc(OC2CCN(Cc3cccc4nonc34)CC2)c(Cl)c1,"inconclusive: 20 µM [inhibitor, full curve, poor fit]"
4,O=C(c1ccncc1)N1CCCCCC1c1nnc(-c2ccccc2)o1 (configuration not stated),inactive
5,O=C1NCc2ccccc2CC12CCCN2Cc1ccccc1OC(F)(F)F (configuration not stated),"inconclusive: 89.1 µM [inhibitor, single point]"
6,COC1CCN(C(=O)C(C)(C)Oc2nn(CCOc3ccccc3)c3ccccc23)CC1,active: 89.1 µM
7,COCC1CN(C2CCC2)CC12CCN(C(=O)NCc1ccccc1)CC2 (configuration not stated),"inconclusive: 89.1 µM [inhibitor, single point]"
8,Cc1noc2c(NC(C)C)cc(-c3ccsc3)nc12,"inconclusive: 112 µM [inhibitor, partial curve, poor fit]"
9,CC(C)c1ccc(CN2C[C@@H]3[C@H](C2)N(Cc2ccccc2)C(=O)C(C)(C)[S+]3(=O)[O-])cc1,"inconclusive: 79.4 µM [inhibitor, partial curve, poor fit]"
10,C[C@H]1[C@@H]2[C@@H](O)C([C@H](C)C(=O)NC3CCCCC3)CC[C@@]2(C)CC[C@@H]1NC(=O)c1cncnc1 (some centres not stated),inactive
11,CCn1ccc(C(=O)N2CCC(Cc3ncc(C)n3CCOC)CC2)n1,inactive
12,O=C(NCc1nc(-c2cccc(F)c2)c(-c2ccccn2)[nH]1)[C@@H]1CCCCN1,"inconclusive: 89.1 µM [inhibitor, partial curve, poor fit]"
13,COc1ccc(CN2CC3(CCN(C(=O)Nc4ccc(OC)cc4OC)CC3)C2=O)cc1,"inconclusive: 89.1 µM [inhibitor, single point]"
14,Cc1ccc(C)c(C(=O)N2CCC3(CC2)NC(=O)N(c2ccccc2)N3)c1,"inconclusive: 35.5 µM [inhibitor, partial curve]"
15,COCC(=O)NCCC1CCN(C(=O)Nc2ccc(C)cc2)CC1,inactive
16,N#Cc1ccc(S(=O)(=O)N[C@H]2[C@H](O)[C@H](O)C[C@@H]2c2ccc(C(F)(F)F)cc2)cc1,"inconclusive: 63.1 µM [inhibitor, partial curve, poor fit]"
17,Cn1c(C(=O)N2CCCC2)cc2c1CCN(Cc1ccccc1)C2,"inconclusive: 89.1 µM [inhibitor, single point]"
18,Cc1cc(F)ccc1NC(=O)c1cc2n(n1)CC(c1ccc(Cl)cc1)OC2 (configuration not stated),"inconclusive: 56.2 µM [inhibitor, partial curve, poor fit]"
19,COc1ccc(F)cc1-c1cccc(C(=O)NCCNC(=O)Cc2ccc(F)cc2)c1,"inconclusive: 50.1 µM [inhibitor, partial curve, poor fit]"
20,O=C(NCCN1CCOCC1)c1cc(-c2cc(Cl)cc(Cl)c2)c2nncn2n1,inactive
21,COC[C@@H]1CN(C(=O)c2ncccc2C)C[C@H]1c1nc(C2CC2)no1,inactive

row,SMILES,Potency
1,COc1ccc(-c2cccc(C(=O)N3CCC(NC(=O)c4ccccc4)CC3)c2)nn1,"inconclusive: 56.2 µM [inhibitor, partial curve, poor fit]"
2,COc1ccccc1Cn1c(=O)c(C(=O)NCCCc2ccccc2)nc2cccnc21,"inconclusive: 50.1 µM [inhibitor, partial curve, poor fit]"
3,CCCNC(=O)NC[C@@H]1C=C(C)[C@H](Cc2nc3ccccc3[nH]2)C[C@H]1C(C)C,active: 100 µM
4,Clc1ccccc1C1(c2ccnc(NCCc3ccccn3)n2)CCNCC1,"inconclusive: 44.7 µM [inhibitor, partial curve]"
5,COc1cccc(NC(=O)N2CCC(Oc3ncccc3C(=O)N3CCOCC3)C2)c1 (configuration not stated),inactive
6,C[C@@H](NC(=O)NC1(c2ccccc2)CCOCC1)c1onc(-c2ccc(F)cc2)c1C(=O)O,inactive
7,O=C(Nc1ccc2ncnc(N3CCCC3)c2c1)c1cccc(Br)c1,active: 17.8 µM
8,COc1ccc(Nc2ccnc(N3CCC(N[S+](=O)([O-])c4cccc(C(F)(F)F)c4)CC3)n2)cc1,active: 22.4 µM
9,Cc1ccccc1-c1cccc(CN2CCOC(CCN)C2)c1 (configuration not stated),"inconclusive: 17.8 µM [inhibitor, full curve, poor fit]"
10,CN1CCC(N2CCN(C(=O)c3cc(-c4ccc(F)cc4)cn3C)CC2)CC1,"inconclusive: 89.1 µM [inhibitor, single point]"
11,Cn1nccc1CN1CCn2c(nn(-c3ccc(Cl)cc3)c2=O)C1,"inconclusive: 79.4 µM [inhibitor, partial curve, poor fit]"
12,Cc1n[nH]c(C)c1C(N)C(=O)N1CCCCCCC1 (configuration not stated),inactive
13,Cc1ccc(CNC(=O)c2ccc(N3CC4CC(C3)[C@H]3CCCC(=O)N3C4)nc2)cc1 (some centres not stated),"inconclusive: 89.1 µM [inhibitor, single point]"
14,Cc1nnnn1CCC(=O)NCC1CCN(c2cnn(C)c(=O)c2)C1 (configuration not stated),inactive
15,CC(C)CNC(=O)CC(c1ccc(F)cc1F)c1c[nH]c2ccccc12 (configuration not stated),"inconclusive: 89.1 µM [inhibitor, partial curve, poor fit]"
16,Cc1cccc(C)c1-c1nc(C(=O)N(C)C)n2ccccc12,"inconclusive: 50.1 µM [inhibitor, full curve, poor fit]"
17,O=C1CCc2cc(NC(=O)c3n[nH]c4ccccc34)ccc2N1,"inconclusive: 50.1 µM [inhibitor, partial curve, poor fit]"
18,Cn1c(CCC(=O)N2CCOCC2)nc2cc(S(=O)(=O)N3CCCC3)ccc21,inactive
19,Clc1cccc(-c2cnc([C@@H]3COCCN3Cc3cnc[nH]3)[nH]2)c1,"inconclusive: 112 µM [inhibitor, single point]"
20,COc1cccc(CN2CCOc3ccc(C(=O)NCc4ccccc4F)cc3C2)n1,"inconclusive: 89.1 µM [inhibitor, single point]"
21,COc1ccc(CNC(=O)c2c(C)noc2-c2ccco2)cc1,"inconclusive: 89.1 µM [inhibitor, single point]"

# Reference: PubChem BioAssay AID1345083 (National Center for Advancing Translational Sciences (NCATS), 2018)
